Test results as given in PubChem BioAssay AID1347055 (National Center for Advancing Translational Sciences (NCATS), 2019).
Among all 54,000 compounds or so, about 120 (0.22%) were called active. Inconclusive means that the source gave no clear call. Such entries were picked first, then a sample of the others. Calls follow the shape of the dose curve; as a rule, active = well fitted inhibition curve with a large enough effect; inconclusive = small, poorly fitted or top-dose-only effect, or effect the other way; inactive = flat fitted curve, though single readings scatter. No potency is given beside an inconclusive call; the fits are too rough.

Molecular target: Fumarate hydratase, mitochondrial (Homo sapiens) (UniProt P07954)
UniProt P07954, sequence (P07954 whole entry, looked up): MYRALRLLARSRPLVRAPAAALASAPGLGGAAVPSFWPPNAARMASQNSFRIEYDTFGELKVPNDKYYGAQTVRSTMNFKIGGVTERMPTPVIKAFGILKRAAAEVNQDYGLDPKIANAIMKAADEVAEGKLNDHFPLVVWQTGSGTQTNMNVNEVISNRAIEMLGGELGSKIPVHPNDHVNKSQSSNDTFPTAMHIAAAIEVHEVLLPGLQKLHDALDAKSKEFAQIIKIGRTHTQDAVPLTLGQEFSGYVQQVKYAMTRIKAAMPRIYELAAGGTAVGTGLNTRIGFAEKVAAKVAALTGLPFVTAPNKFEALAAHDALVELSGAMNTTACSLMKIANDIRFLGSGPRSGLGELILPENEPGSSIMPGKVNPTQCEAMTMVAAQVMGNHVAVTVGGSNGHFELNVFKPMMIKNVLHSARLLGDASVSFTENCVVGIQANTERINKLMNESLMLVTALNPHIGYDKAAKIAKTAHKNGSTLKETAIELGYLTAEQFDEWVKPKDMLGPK
Assay: Identification of activators of human fumarate hydratase by quantitative high-throughput screening; also: the screen sought activators but most active calls are inhibition curves; nearly all actives have a fitted effect of over 45% in size
Settings: FH coupled MDH/diaphorase resazurin fluorescence, 15 min; activity change, negative = inhibition: at 79.9 µM (top of the series)
Text: Fumarate hydratase (FH) is a metabolic enzyme that is part of the Krebs-cycle, and reversibly catalyzes the hydration of fumarate to malate. Mutations of the FH gene have been associated with fumarate hydratase deficiency (FHD), hereditary leiomyomatosis, renal cell cancer (HLRCC), and other diseases. Currently there are no high-quality small molecule probes for studying human fumarate hydratase. To address this, we developed a quantitative high throughput screening (qHTS) FH assay and screened a total of 57,037 compounds in dose-response. While no inhibitors of FH were confirmed, a series of phenyl-pyrrolo-pyrimidine-diones (12 compounds) were identified as activators of human fumarate hydratase. […] The binding of two compounds from the series to human fumarate hydratase was confirmed by microscale thermophoresis. The low hit rate in this screening campaign confirmed that FH is a "tough target" to modulate, and the small molecule activators of human fumarate hydratase reported here may serve as a starting point for further optimization and development into cellular probes of human FH and potential drug candidates.
For primary high-throughput screen, 3 ul of FH solution (containing 13.33nM human fumarate hydratase, 13.33IU/ml malic dehydrogenase, 0.2mM NAD, 0.067mg/ml diaphorase and 0.067mM resazurin in the assay buffer (50 mM Tris pH 8.0, 5 mM MgCl2, 0.01% Brij 3) was dispensed into each well in a black solid bottom 1536-well assay plate (Greiner Bio-One) using a BioRAPTR FRD dispenser (Beckman Coulter, Brea, CA). A 1536-well pintool dispenser outfitted with 20 nl pins (Wako Automation, San Diego, CA) was used to transfer 20 nL of DMSO-solubilized compound (Cherrypick plates) to each 1536-well assay plate. Each compound was screened at five concentrations: 15 nM, 151 nM, 1.5 uM, 15.4 uM, 76.9 uM. Following compound transfer, plates were incubated in room temperature for 10 minutes. 1 uL of substrate solution containing fumaric acid (160 uM) was dispensed via BioRAPTR FRD to initiate the reaction. Plates were immediately transferred to a ViewLux microplate imager (PerkinElmer, Waltham, MA), and any resulting resorufin fluorescence was measured (exitation/emission, 525/598 nm) at 0 and 15 minutes. The exposure time is 1 second. Fluorescence from each well was normalized using enzyme-free and DMSO-treated control wells on each plate, and changes in fluorescence (delta RFU) were calculated using the difference in fluorescent signal for each well at 15 minutes versus 0 minutes.
% is scaled to controls: 0 for no effect and ±100 for the full control effect; potency is read from the fitted curve at half-maximal effect; tags tell the direction and shape of the fitted curve.

Row | SMILES | Potency | activity change, negative = inhibition
1 | COCCCNC(=O)c1oc2c(c1C)-c1nn(Cc3cccc(Cl)c3)cc1CC2 | inconclusive [inhibitor, single point] | –
2 | O=C(COc1ccccc1Cl)NCC1(N2CCOCC2)CCCCC1 | inconclusive [inhibitor, partial curve, poor fit] | –
3 | Clc1cccc(-n2ncc3c(N4CCCCC4)ncnc32)c1 | inactive | –
4 | CCN(c1cccc(C)c1)S(=O)(=O)c1ccc2[nH]cc(C(=O)NCCCOC)c(=O)c2c1 | inactive | –
5 | CC1CC(O)C2(OC1=O)OC1C(O)C3C4CCC5CC(OC6OC(CO)C(O)C(O)C6OC6OC(C)C(O)C(O)C6O)CCC5(C)C4CCC3(C)C1C2C (centres undefined) | inconclusive [activator, single point] | –
6 | COc1ccc(N2CCN(C(=O)c3cn(CC(C)C)c(=O)c4c3c3ccccc3n4C)CC2)cc1 | active: 31.6 µM | –
7 | CCOc1ccc(N(C(=O)Cn2nnc3ccccc32)C(C(=O)NCc2ccccc2)c2ccc(OC)cc2)cc1 (centres undefined) | inconclusive [inhibitor, partial curve, poor fit] | –
8 | CCOC(=O)c1cc(-c2ccccc2)n(-c2cccc(C(=O)Nc3ccc(OC)cc3)c2)c1C | inconclusive [inhibitor, partial curve, poor fit] | –
9 | CC(C)(C)C1CCc2c(sc(NC(=O)Cn3nnc(-c4ccccc4F)n3)c2C#N)C1 (centres undefined) | inconclusive [inhibitor, partial curve, poor fit] | –
10 | OCC(O)CCO/N=C1/C(c2c(O)[nH]c3ccccc23)=Nc2ccccc21 (centres undefined) | inactive | –
11 | CCOc1ccc(N2CC(c3nc4ccccc4n3Cc3ccccc3F)CC2=O)cc1 (centres undefined) | inconclusive [inhibitor, single point] | –
12 | Cc1ccc(-c2cn(-c3cccc(Cl)c3)c(S(=O)(=O)CC(=O)Nc3cccc(C)c3)n2)cc1 | inconclusive [inhibitor, partial curve, poor fit] | –
13 | COc1ccc(CCNc2nc(-c3ccc(OC)c(OC)c3)cc(C(F)(F)F)n2)cc1OC | inconclusive [inhibitor, single point] | –
14 | Cc1cccc(N2CCN(C(=O)c3ccc4c(c3)N(Cc3cccc(Cl)c3)C(=O)c3ccccc3S4=O)CC2C)c1 (centres undefined) | inconclusive [inhibitor, partial curve] | –
15 | COc1ccc(C(=O)Nc2nc3c(s2)CCCC3)cc1Cl | inconclusive [inhibitor, partial curve, poor fit] | –
16 | CCCCOC(=O)CSc1nnc(-c2ccc(C)cc2)o1 | inconclusive [inhibitor, partial curve] | –
17 | NC(=O)Nc1cc(-c2ccc(CN3CCOCC3)cc2)sc1C(N)=O | inactive | –
18 | Cc1[nH]c2ccccc2c1C1(O)C(=O)N(Cc2ccccc2Cl)c2ccccc21 (centres undefined) | inconclusive [inhibitor, single point] | –
19 | Nc1c(S(=O)(=O)c2ccccc2)c2nc3ccccc3nc2n1-c1ccc(F)cc1 | inconclusive [inhibitor, partial curve, poor fit] | –
20 | Cc1ccccc1-c1nn2c(=O)cc(CN3CCN(S(=O)(=O)c4ccc(Cl)cc4)CC3)nc2s1 | inconclusive [inhibitor, partial curve, poor fit] | –

Row | SMILES | Potency | activity change, negative = inhibition
21 | CCN(Cc1ccccc1)C(=O)c1nn(-c2ccc(OC)cc2)c(=O)c2c1c1ccccc1n2C | inactive | –
22 | CCOC(=O)c1ccc(N2C(=O)c3n[nH]c(C)c3C2c2ccc(OCC)cc2)cc1 (centres undefined) | inconclusive [inhibitor, partial curve, poor fit] | –
23 | C[C@H]1[C@H](C)CC[C@]2(C(=O)OC3OC(CO)C(O)C(O)C3O)CC[C@]3(C(=O)O)C(=CCC4[C@@]5(C)CC[C@H](O[C@@H]6O[C@@H](C)[C@H](OC7OC(CO)C(O)C(O)C7O)[C@@H](O)[C@H]6O)C(C)(C)C5CC[C@]43C)[C@H]12 (some centres undefined) | inactive | –
24 | CC(=O)N1CCc2c(sc3c2c(=O)n(CCc2ccccc2)c(=O)n3Cc2ccc(Cl)cc2)C1 | inconclusive [inhibitor, partial curve] | –
25 | COc1ccc(-c2nc(C)c(CCNS(=O)(=O)c3cc(C)c(C)cc3C)s2)cc1 | inconclusive [inhibitor, single point] | –
26 | CC(C)(C)c1ccc(-c2nc(SCCCOc3ccccc3)n3[nH]c(=O)cc3n2)cc1 | inconclusive [inhibitor, full curve] | –
27 | O=C(O)c1ccnc2cc(C(OCC3CCC(F)(F)CC3)c3ccccc3Cl)[nH]c12 (centres undefined) | inactive | –
28 | CCOC(=O)Cn1c(=O)n(-c2ccccc2OC)c2nc(-c3cccc(F)c3)nc(C(N)=O)c21 | inconclusive [inhibitor, partial curve, poor fit] | –
29 | Cc1ccccc1-n1c(SCc2ccc(Cl)cc2)nc2[nH]ncc2c1=O | inconclusive [inhibitor, single point] | –
30 | CCCCN(C)C(=O)C1CCCN(c2ncnc3onc(C)c23)C1 (centres undefined) | inactive | –
31 | Cc1nnc(N2CCC(C(=O)NCCc3ccccc3Cl)CC2)c2nn(-c3ccccc3)c(C)c12 | inactive | –
32 | COc1ccccc1Cc1nc2ccccc2nc1SCC(=O)N(C)c1ccc(F)cc1 | inconclusive [inhibitor, partial curve, poor fit] | –
33 | CCCCCCOc1ccc(C2C(=O)N(C3CCCCC3)CC(=O)N2CCC)cc1 (centres undefined) | inconclusive [inhibitor, partial curve, poor fit] | –
34 | Cc1cccc(N2CCN(C(=O)c3cn(CC(C)C)c(=O)c4c3c3ccccc3n4C)CC2)c1C | inconclusive [inhibitor, single point] | –
35 | CCOC(=O)C1CCCN(C(=O)c2cc3c(=O)[nH]c4ccc(C)cc4c3s2)C1 (centres undefined) | inconclusive [inhibitor, partial curve, poor fit] | –
36 | CCC(C(=O)Nc1c(C)cc(C)cc1C)n1c(=O)c(-c2ccccc2NC(C)=O)nc2ccccc21 (centres undefined) | inactive | –
37 | CCC(C)(Oc1ccc(C2(c3ccc(OC(C)(CC)C(=O)O)cc3)CCCCC2)cc1)C(=O)O (centres undefined) | inactive | –
38 | C[C@@H](O[C@H]1OCCN(Cc2nn(P(=O)(O)O)c(=O)[nH]2)[C@H]1c1ccc(F)cc1)c1cc(C(F)(F)F)cc(C(F)(F)F)c1 | inactive | –
39 | CC(C)(C)c1ccc(NC(=O)C2CCCN(c3cnccn3)C2)cc1 (centres undefined) | inactive | –
40 | Cc1cnc(-c2cc(N3CCN(C(=O)CCS(C)(=O)=O)CC3)ncc2Cl)c(C)c1 | inactive | –

Row | SMILES | Potency | activity change, negative = inhibition
41 | Fc1ccc(N2CCCCC2)c(NC(=S)c2ccncc2)c1 | inactive | –
42 | Cc1nc(C)c(-c2ccc(SCC(=O)Nc3ccc(Br)cc3)nn2)s1 | inconclusive [inhibitor, partial curve, poor fit] | –
43 | CSc1ccc(CCNC(=O)c2cnc3c(C)cccn3c2=O)cc1 | inconclusive [inhibitor, partial curve] | –
44 | C/C(=N\O)[C@@H](C)NCC(C)(C)CN[C@H](C)/C(C)=N/O | inactive | –
45 | CC(C)c1ccc(C2=CC(c3ccc(C(C)C)cc3)n3nnnc3N2)cc1 (centres undefined) | inconclusive [inhibitor, partial curve, poor fit] | –
46 | COc1ccc(Cl)cc1NC(=O)Cc1ccc(NC(=O)N2CCCCc3ccccc32)cc1 | inactive | –
47 | COCCOCCOc1ccc(C2=N[C@@](C)(C(=O)O)CS2)c(O)c1 | inconclusive [activator, partial curve] | –
48 | CCOC(=O)C1CCCN(S(=O)(=O)c2ccc(F)c(C(=O)Nc3ccc(F)c(F)c3)c2)C1 (centres undefined) | inconclusive [inhibitor, partial curve, poor fit] | –
49 | Cc1ccc(S(=O)(=O)N(CC(O)Cn2c3ccccc3c3ccccc32)c2cccc(C(N)=O)c2)cc1 (centres undefined) | inconclusive [inhibitor, single point] | –
50 | CCOc1ccc(CNCc2c(C(=O)O)n(Cc3ccccc3F)c3cc(OC)ccc23)cc1 | inconclusive [inhibitor, partial curve, poor fit] | –
51 | CCOC(=O)c1cccc(NS(=O)(=O)c2cc(-c3cnc(C4CC4)o3)ccc2C)c1 | inconclusive [inhibitor, partial curve] | –
52 | Cc1ccc(-n2c3nc(=O)[nH]c(=O)c-3cc3c(C)nn(-c4ccccc4)c32)cc1C | inconclusive [inhibitor, partial curve, poor fit] | –
53 | CC(=O)N1c2ccc(S(=O)(=O)N3CCCCCC3)cc2CC1C(=O)NCc1ccccc1C (centres undefined) | inactive | –
54 | CCCOc1ccc(C(=O)N(Cc2ccccc2Cl)C2CCS(=O)(=O)C2)cc1 (centres undefined) | inconclusive [activator, full curve] | –
55 | COC(=O)c1ccccc1NC(=O)c1cnc(Nc2ccc(OC)cc2)c2ccccc12 | inconclusive [inhibitor, partial curve, poor fit] | –
56 | COc1ccc(CNC(=O)CSc2ncc3c(n2)-c2ccc(Cl)cc2N(Cc2ccc(F)cc2)S3(=O)=O)cc1OC | inconclusive [activator, single point] | –
57 | CC(C)(C)c1ccc(C(=O)NCC(c2ccco2)S(=O)(=O)c2ccc(F)cc2)cc1 (centres undefined) | – | inconclusive: -32.6% [inhibitor]
58 | Cc1ccc(-c2cn(-c3cccc(Cl)c3)c(S(=O)(=O)CC(=O)Nc3ccccc3F)n2)cc1 | inconclusive [inhibitor, partial curve] | –
59 | COc1ccc(CCNC(=O)c2ccc(Cn3c(=O)c4ccccc4n(Cc4cccc(Cl)c4)c3=O)cc2)cc1OC | inactive | –
